According to PubChem BioAssay AID624417 (National Center for Advancing Translational Sciences (NCATS), 2012):
Among all 410,000 compounds or so, about 6,400 (1.6%) were called active. The shares of active, inactive and inconclusive entries below differ from those in the screen. The call rests on the fitted dose curve; in most records, active means well fitted inhibition curve with a large enough effect; inconclusive means small, poorly fitted or top-dose-only effect; inactive means no such curve, though single readings can be large or run the other way. Potencies of inconclusive entries are left out as doubtful fits.

Molecular target: Glucagon-like peptide 1 receptor (Homo sapiens) (UniProt P43220)
Chain of UniProt P43220 (P43220 whole entry, looked up): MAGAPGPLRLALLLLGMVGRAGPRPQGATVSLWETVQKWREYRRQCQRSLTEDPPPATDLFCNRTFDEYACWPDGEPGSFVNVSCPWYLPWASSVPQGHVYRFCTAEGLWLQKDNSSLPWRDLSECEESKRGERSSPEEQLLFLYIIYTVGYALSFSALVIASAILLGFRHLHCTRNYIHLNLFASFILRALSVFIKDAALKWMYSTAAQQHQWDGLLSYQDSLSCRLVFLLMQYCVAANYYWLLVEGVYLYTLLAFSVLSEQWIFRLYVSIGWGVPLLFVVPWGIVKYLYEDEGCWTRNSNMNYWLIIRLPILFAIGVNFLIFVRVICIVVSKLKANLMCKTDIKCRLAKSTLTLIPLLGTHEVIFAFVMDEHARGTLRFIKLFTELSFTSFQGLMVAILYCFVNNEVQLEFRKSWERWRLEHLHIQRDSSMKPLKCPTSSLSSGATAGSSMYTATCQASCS
Test: qHTS of GLP-1 Receptor Inverse Agonists (Inhibition Mode); further: nearly all actives have a fitted effect of over 55% in size
Conditions: HEK293 GLP-1R CRE-luciferase, luminescence, 24 h, GLP-1R form is constitutively active; activity change, negative = inhibition: at 38.3 µM (top of the series) unless noted
How it was run: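 Constitutively active GLP-1R drives a cAMP-responsive luciferase in stably transfected HEK293 cells; test compounds are added after overnight (12 h) attachment and left 24 hr, and signal loss in luminescence marks inhibition.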
On the % scale 0 is the no-effect control and ±100 the full control effect; potency means the concentration at half of the fitted maximal effect; tags describe the fitted curve by direction and shape.

SMILES	Potency	activity change, negative = inhibition
CC1(C(=O)Nc2cccc3cccnc23)CCN1C(=O)Cc1ccc(Cl)cc1Cl (stereo not drawn)	inconclusive [inhibitor, single point]	
O=C(c1ccc(F)cc1)C1CCN(C(=O)c2ccc(F)cc2)CC1	inconclusive [inhibitor, single point]	
OC(Cc1cccc(C=NN2CCOCC2)n1)(C(F)(F)F)C(F)(F)F	inconclusive [inhibitor, partial curve]	
Cc1ccccc1C(=O)N1CCc2cc(-c3nc(NC(=O)Cc4ccc5c(c4)OCO5)sc3C)ccc21	inconclusive [inhibitor, partial curve, poor fit]	
O=C(Nc1cccc2cccnc12)c1ccccc1Cl	inconclusive [inhibitor, single point]	
O=C(Nc1ccc2c(c1)OCO2)c1cccc(F)c1		inactive: 3.26%
O=C(CSc1cn(CCNC(=O)c2ccc3ccccc3c2)c2ccccc12)NCc1ccco1	inconclusive [inhibitor, single point]	
ON=Cc1ccnc2ccccc12		inactive: -1.1%
Cc1cc2ccccc2n2c(SCC(=O)N3CCc4ccccc4C3)nnc12		inactive: 32.5%
COc1ccc(NS(=O)(=O)c2ccc(N3CCOCC3)c(NC(=O)c3ccc(OC)cc3)c2)cc1	inconclusive [inhibitor, partial curve, poor fit]	
Cn1c(=O)c(C(=O)CN2CCN(Cc3ccc4c(c3)OCO4)CC2)c(N)n(Cc2ccccc2)c1=O	inconclusive [inhibitor, partial curve]	
CCN(CC)c1ccc(/C=N/N=C(N)N)c(O)c1	inconclusive [inhibitor, full curve, poor fit]	
O=C(Nc1ccc(Cl)cc1)c1cc(S(=O)(=O)N2CCc3ccccc32)ccc1F	inconclusive [inhibitor, partial curve, poor fit]	
Clc1cccc(-c2ccc(C=Nc3ccc(N4CCOCC4)cc3)o2)c1Cl	inconclusive [inhibitor, single point]	
Cc1cccc(NC(=O)NCCc2c[nH]c3ccccc23)c1	active: 8.91 µM	
CCOc1ccc(Cl)cc1CNCCNCC(C)O (stereo not drawn)		inactive: -25.5%
CCOc1cc(CNC2CCCC2)cc(Cl)c1OCc1ccccc1	inconclusive [inhibitor, partial curve, poor fit]	
CN(C)c1ccc(/C=N/NC(=O)c2ccccc2Cl)cc1	inconclusive [inhibitor, partial curve, poor fit]	
COc1ccc(S(=O)(=O)N2CCN=C2SCc2cccc(F)c2)cc1	inconclusive [inhibitor, single point]	
CCOC(=O)C1CC(c2ccccc2)=NN1c1ccccc1 (stereo not drawn)	inconclusive [inhibitor, partial curve, poor fit]	
O=C(c1ccc(F)cc1)N1CCCC(c2nc(-c3cccs3)no2)C1 (stereo not drawn)	inconclusive [inhibitor, partial curve]	
COc1cccc(CNC(=O)CN2C(=O)COc3ccc(S(=O)(=O)Nc4ccccc4)cc32)c1		inactive: -16.2%

SMILES	Potency	activity change, negative = inhibition
Cc1nn(CC(=O)N(C)C2CCS(=O)(=O)C2)c(C)c1[N+](=O)[O-] (stereo not drawn)		inactive: -2.65%
CC(O)CC(C(=O)NNc1ccccc1)C(=O)NNc1ccccc1 (stereo not drawn)	inconclusive [inhibitor, full curve, poor fit]	
COc1ccc(C2(CNC(=O)c3ccc(OCC(C)C)cc3)CCOCC2)cc1	inconclusive [inhibitor, partial curve, poor fit]	
CC(=O)Nc1cc(-c2ccccc2)nn1Cc1ccc(Cl)cc1	inconclusive [inhibitor, single point]	
CCOC(=O)Nc1ccc2c(c1)ncn2C1CCCCC1		inactive: -19%
OCc1ccc(O)c2ncccc12	active: 10 µM	
N#CCSc1ccc(-c2nc3ccccc3[nH]2)cn1	inconclusive [inhibitor, single point]	
O=C(NC(=S)Nc1cccc([N+](=O)[O-])c1)C1CCCC1	inconclusive [inhibitor, single point]	
CCOC(=O)NC(=S)Nc1ccc(C(C)(C)C)cc1	inconclusive [inhibitor, partial curve]	
CC(C)C[C@@H](CN)NC(=O)c1nc[nH]c1C(=O)N[C@@H](Cc1c[nH]c2ccccc12)C(=O)CNC[C@H](C)NC(=O)c1nc[nH]c1C(=O)N[C@@H](CC(=O)O)C(=O)O		inactive: 2.38%
C/C(=N\NC(=O)c1ccccc1C)c1ccc(NC(=O)c2cccs2)cc1	inconclusive [inhibitor, partial curve, poor fit]	
COc1cc(C2C3=C(COC3=O)OC(C)(C)Oc3cc4c(cc32)OCO4)cc(OC)c1OC (stereo not drawn)	inconclusive [inhibitor, full curve, poor fit]	
COc1ccccc1Cn1c(CCCO)nc2ccccc21		inactive: -3.58%
Cc1cccc(/C=C/c2onc(C)c2[N+](=O)[O-])n1	active: 2.82 µM	
Cc1ccc(OCc2nnc(SCC(=O)N3C(C)CCCC3C)o2)cc1 (stereo not drawn)	inconclusive [inhibitor, single point]	
Cc1cc(C(=O)NCC(=O)Nc2ccc(F)c(F)c2)c(C)o1		inactive: -6.17%
COc1ccccc1NS(=O)(=O)c1cc(C(=O)NCC(C)(C)N2CCOCC2)ccc1C	inconclusive [inhibitor, full curve, poor fit]	
Cc1ccc(/C=C2/SC(=S)N(CCCC(=O)Nc3ccc(O)cc3)C2=O)cc1	inconclusive [inhibitor, partial curve, poor fit]	
Cc1cccc(NC(=O)c2oc3ccccc3c2NC(=O)c2cc(=O)c3cc(Cl)ccc3o2)c1		inactive: 2.6%
Cn1c(SCC(=O)c2ccc(F)cc2)nnc1-c1ccccc1Br	inconclusive [inhibitor, partial curve, poor fit]	
CC(NC(=O)c1cc(COc2ccc(-n3cncn3)cc2)on1)c1ccc(F)cc1 (stereo not drawn)		inactive: -16.5%
